Counter-ions that a name gives are not always drawn. The full ranking holds about 2,800 compounds; the median of “cell viability relative to vehicle” is about 0.98, and the lowest 2% start at about 0.45. The list shows a part of the results.
Each compound was assayed on NCI-H2228 alectinib-DTP (assay: cell viability relative to vehicle (fraction of vehicle); NCI-H2228 is an ALK-positive lung cancer line and DTP means drug-tolerant persister; higher = less growth inhibition). Details: 100 nM; treatment time 6 days.
Outline: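 Drug-tolerant persister NCI-H2228 cells, produced by 13 days in 1000 nM of a targeted drug, and their parental counterparts were seeded into 384-well plates and, the following day, given the 3114-agent TargetMol anti-cancer compound library at 100 nM or DMSO vehicle. After 6 days, the CellTiter-Glo 3D Cell Viability Assay was used to read ATP. Each entry reports viability compared with vehicle-treated cells.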

Structure (SMILES) | cell viability
O=C1Nc2cc(Br)ccc2/C1=C1/Nc2ccccc2/C1=N\O | 0.724
CN(N=O)C(=O)N[C@@H](C=O)[C@@H](O)[C@H](O)[C@H](O)CO [Streptozocin] | 0.791
O=C(NC(NC(=S)Nc1ccc(F)c([N+](=O)[O-])c1)C(Cl)(Cl)Cl)C(c1ccccc1)c1ccccc1 (centres undefined) | 0.861
CCc1cc(C(N)=S)ccn1 [Ethinamide] | 0.966
CC(=O)Nc1ccc(S(=O)(=O)Nc2ccc([N+](=O)[O-])cc2)cc1 [Sulfanitran] | 1.03
CCc1c2c(nc3ccc(OC(=O)N4CCC(N5CCCCC5)CC4)cc13)-c1cc3c(c(=O)n1C2)COC(=O)[C@]3(O)CC [Irinotecan] | 1.07
CCc1c2c(nc3ccc(OC(=O)N4CCC(N5CCCCC5)CC4)cc13)-c1cc3c(c(=O)n1C2)COC(=O)[C@]3(O)CC [Irinotecan hydrochloride trihydrate] | 1.05
C[C@H]1[C@H](NC(=O)/C(=N\OC(C)(C)C(=O)O)c2csc(N)n2)C(=O)N1S(=O)(=O)O [Aztreonam] | 1.27
C[C@H](O)[C@H]1CC[C@H]2[C@@H]3CC[C@@H]4C[C@H](O)CC[C@]4(C)[C@H]3CC[C@]12C [5Beta-Pregnane-3Alpha,20alpha-Diol] | 0.824
OC[C@H]1O[C@@H](OCCc2ccc(O)cc2)[C@H](O)[C@@H](O)[C@@H]1O [Salidroside] | 0.915
CNCCC=C1c2ccccc2CCc2ccccc21 [Nortriptyline hydrochloride] | 1.04
CCC[C@H](NC(=O)/C(C#N)=C/c1cccc(Br)n1)c1ccccc1 [Degrasyn] | 0.935
CCOC(=O)NCCCC(=O)NCCc1ccccc1 [SantacruzaMate A] | 0.96
COC(=O)c1ccc(N2CCN(C)CC2)c(NC(=O)c2cccc(OC)c2)c1 | 0.839
CC[C@H](C)[C@@H]([C@@H](CC(=O)N1CCC[C@H]1[C@H](OC)[C@@H](C)C(=O)N[C@@H](Cc1ccccc1)C(=O)O)OC)N(C)C(=O)[C@@H](NC(=O)[C@@H](NC)C(C)C)C(C)C [MonoMethyl auristatin F] | 0.645
C=C1/C(=C\C=C2/CCC[C@]3(C)[C@@H]([C@H](C)CCCC(C)(C)O)CC[C@@H]23)C[C@@H](O)C[C@@H]1O [Calcitriol] | 0.807
Cc1ccc(/C(=C\CN2CCCC2)c2ccccn2)cc1 [Triprolidine hydrochloride] | 1.18
c1ccc2c(Oc3nc(Nc4ccc(N5CCOCC5)cc4)c4ncn(C5CCCCC5)c4n3)cccc2c1 [Purmorphamine] | 0.889
N#Cc1ccc(Cn2cncc2CN2CCN(c3cccc(Cl)c3)C(=O)C2)cc1 | 0.882
C[C@]12C=CC(=O)C=C1CC[C@@H]1[C@@H]2C(=O)C[C@@]2(C)[C@H]1CC[C@]2(O)C(=O)CO [Prednisone] | 0.976

Structure (SMILES) | cell viability
COc1cc2nccc(Oc3ccc(NC(=O)Nc4ccc(F)cc4F)c(F)c3)c2cc1OC | 0.966
CC1(C)[C@@H](O[C@H]2O[C@H](C(=O)O)[C@@H](O)[C@H](O)[C@H]2O[C@@H]2O[C@H](C(=O)O)[C@@H](O)[C@H](O)[C@H]2O)CC[C@]2(C)[C@H]3C(=O)C=C4[C@@H]5C[C@@](C)(C(=O)O)CC[C@]5(C)CC[C@@]4(C)[C@]3(C)CC[C@@H]12 [Diammonium Glycyrrhizinate] | 1.15
CC1(C)[C@@H](O[C@H]2O[C@H](C(=O)O)[C@@H](O)[C@H](O)[C@H]2O[C@@H]2O[C@H](C(=O)O)[C@@H](O)[C@H](O)[C@H]2O)CC[C@]2(C)[C@H]3C(=O)C=C4[C@@H]5C[C@@](C)(C(=O)O)CC[C@]5(C)CC[C@@]4(C)[C@]3(C)CC[C@@H]12 [Glycyrrhizin] | 1.21
CC(C)CN(C[C@@H](O)[C@H](Cc1ccccc1)NC(=O)O[C@H]1CCOC1)S(=O)(=O)c1ccc(N)cc1 [Amprenavir] | 1
CCC1=C[C@@H]2CN(C1)Cc1c([nH]c3ccccc13)[C@@](C(=O)OC)(c1cc3c(cc1OC)N(C)[C@H]1[C@@](O)(C(=O)OC)[C@H](OC(C)=O)[C@]4(CC)C=CCN5CC[C@]31[C@@H]54)C2 [Vinorelbine Tartrate] | 0.864
OCc1ccccc1 [Benzyl alcohol] | 0.987
O=c1c(O)c(-c2ccc(O)cc2)oc2c(O)c(O)cc(O)c12 [Herbacetin] | 1.02
CC(C)=CCC[C@](C)(O[C@@H]1O[C@H](CO)[C@@H](O)[C@H](O)[C@H]1O)[C@H]1CC[C@]2(C)[C@@H]1[C@H](O)C[C@@H]1[C@@]3(C)CC[C@H](O)C(C)(C)[C@@H]3[C@@H](O[C@@H]3O[C@H](CO)[C@@H](O)[C@H](O)[C@H]3O[C@@H]3OC[C@@H](O)[C@H](O)[C@H]3O)C[C@]12C [Notoginsenoside R1] | 0.966
CNC(=C[N+](=O)[O-])NCCSCc1csc(CN(C)C)n1 [Nizatidine] | 0.816
NC(=O)c1nc(-c2c(F)cccc2Cl)oc1Nc1ccc(C(=O)N2CCOCC2)cc1 | 0.929
CS(=O)(=O)Nc1ccc([N+](=O)[O-])cc1Oc1ccccc1 [Nimesulide] | 0.949
CCn1cc(C(=O)O)c(=O)c2cc(F)c(N3CCNC(C)C3)c(F)c21 (centres undefined) [Lomefloxacin hydrochloride] | 0.737
CCn1cc(C(=O)O)c(=O)c2cc(F)c(N3CCNC(C)C3)c(F)c21 (centres undefined) [Lomefloxacin] | 0.995
Cc1cc(Nc2cc(Cl)nc(Oc3ccc([N+](=O)[O-])cc3)n2)n[nH]1 [Autophinib] | 1.28
C=CC(=O)Nc1cccc(Nc2nc(Nc3ccc(NC4CN(CCF)C4)cc3OC)ncc2C(F)(F)F)c1 | 0.909
CCn1cc(C(=O)O)c(=O)c2cc(F)c(N3CCN(C)CC3)cc21 [Pefloxacin Mesylate Dihydrate] | 1
N#CN=C(NCCCCCCOc1ccc(Cl)cc1)Nc1ccncc1 | 0.165
NC(=O)c1[nH]cnc1N [4-Amino-5-imidazolecarboxamide] | 0.889
O=C(O)c1ccc(CN2C[C@@H]3C[C@H]2CN3Cc2ccc(Oc3ccc(-c4ncco4)cc3)cc2)cc1 [Acebilustat] | 1.04

Source: the supplement of paper PMC10600219
